Source: patent publication US20140086829A1 (BIOREC S A, published 2014)

T1: human VEGF-A (Peprotech), isoform not stated (human, UniProt P15692-4 27-191, limits assumed)
T1 sequence (looked up): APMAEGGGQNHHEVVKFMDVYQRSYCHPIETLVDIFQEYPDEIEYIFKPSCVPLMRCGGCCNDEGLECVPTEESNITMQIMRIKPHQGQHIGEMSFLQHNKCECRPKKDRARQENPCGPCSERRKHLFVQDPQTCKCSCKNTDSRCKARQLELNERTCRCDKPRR

B1: scFv2-Fc L3H6 (Fc fusion)
chain: QVQLVQSGAEVKKPGESLKISCKGSGYSFTSYWIGWVRQMPGKGLEWMGIIYPGDSDTRYSPSFQGQVTISADKSISTAYLQWSSLKASDTAMYYCARQGTHNRKIWGQGTMVTVSSAPQAKSSGSGSESKVDQAVVTQEPSLTVSPGGTVTLTCASSTGAVTSGNYPNWFQQRPGQPPRALIYSTSNKHSWTPARFSGSLLGGKAALTLSGAQPEDEAEYYCRLSYDLARPVFGGGTKLTVLGSRGGGGSGGGGSA[omitted - human IgG1 Fc with E283K (EU numbers)]
B2: scFv2-Fc L3H5 (Fc fusion)
chain: QVQLVQSGAEVKKPGESLKISCKGSGYSFTSYWIGWVRQMPGKGLEWMGIIYPGDSDTRYSPSFQGQVTISADKSISTAYLQWSSLKASDTAMYYCARLVHRYRAIWGQGTMVTVSSAPQAKSSGSGSESKVDQAVVTQEPSLTVSPGGTVTLTCASSTGAVTSGNYPNWFQQRPGQPPRALIYSTSNKHSWTPARFSGSLLGGKAALTLSGAQPEDEAEYYCRLSYDLARPVFGGGTKLTVLGSRGGGGSGGGGSA[omitted - human IgG1 Fc with E283K (EU numbers)]
B3: scFv2-Fc L3H7 (Fc fusion)
chain: QVQLVQSGAEVKKPGESLKISCKGSGYSFTSYWIGWVRQMPGKGLEWMGIIYPGDSDTRYSPSFQGQVTISADKSISTAYLQWSSLKASDTAMYYCARPYATDTRIWGQGTMVTVSSAPQAKSSGSGSESKVDQAVVTQEPSLTVSPGGTVTLTCASSTGAVTSGNYPNWFQQRPGQPPRALIYSTSNKHSWTPARFSGSLLGGKAALTLSGAQPEDEAEYYCRLSYDLARPVFGGGTKLTVLGSRGGGGSGGGGSA[omitted - human IgG1 Fc with E283K (EU numbers)]

Target: T1, human VEGF-A (Peprotech), isoform not …
Experiment: cell-based or functional assay

| Binder | hemoglobin content of subcutaneous Matrigel pellets with 200 ng human VEGF and 100 µg of the molecule, C57Bl/6 mice |
| --- | --- |
| B1 | 3 fold against scFv2-Fc 2H1 8.2 |
| B2 | 3 fold against scFv2-Fc 2H1 8.2 |
| B3 | 3 fold against scFv2-Fc 2H1 8.2 |
